Experimental data published in the supplement of paper PMC10126150.
Sequences with one replicate were seen in a single cluster, so their values are uncertain.

Test system: ATP
Assay: switch fluorescence ratio, 500 uM ATP over buffer (Cy3 cluster intensity, sum of 5 cycles each) (fold (ratio)); higher = stronger signal-on switching upon ATP binding; sequences stand for … in TCGTCGGCAGCGTCAGATGTGTATAAGAGACAGTTTTTTTTTTTTTTTTTTTTTTTTT…TC
Conditions: aptamer strand: ATP DNA aptamer (quencher-CACCTGGGGGAGTATTGCGGAGGAAGG + anchor), 100 nM annealed; ATP concentration: 500 uM; one replicate
In short: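 Imaging in selection buffer was followed by imaging after 15 min with 500 uM ATP at 22 °C, for Cy3-labelled switching-strand clusters annealed to 100 nM quencher-labelled ATP aptamer on a modified Illumina MiSeq flow-cell. Five of these buffer/ATP cycles ran, separated by NaOH stripping and re-annealing. The fluorescence ratio per cluster is summed target-cycle over summed buffer-cycle Cy3 intensity, averaged per switch-domain sequence; clusters outside 100-1000 RFU were removed.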
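Also: ATP exposure 15 min at 22 °C before imaging.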

Sequence	switch fluorescence ratio
CATAACGGAT	1.01
CATAAGCGCA	1.01
CATAAGGGGT	1.03
CATAAGTGAT	1.02
CATAATATGT	1.05
CATAATCCCG	0.977
CATACATAGT	1.07
CATACCAATT	1.07
CATACGGTCA	1.06
CATACTGTT	1.01
CATAGAATGT	0.993
CATAGACACC	1.04
CATAGATATA	0.99
CATAGGGCCT	0.992
CATAGGGGCA	1.04
CATAGGGTGT	1.03
CATAGTGGCA	0.975
CATATAAAAT	1.01
CATATAAATC	1.04
CATATAGATA	0.982
CATATAGTTA	1.18
CATATCCTTT	1.04
CATATGGGTT	1.04
CATATTCTGC	0.997
CATATTGTTA	1.01
CATCAAGTGG	0.988

Sequence	switch fluorescence ratio
CATCACAGGG	1.14
CATCAGCCTG	0.928
CATCAGGATT	0.956
CATCCATATG	0.995
CATCCCAGTT	1.15
CATCCCCAAG	1.58
CATCCCCATA	2.18
CATCCGCCGG	2.15
CATCCTTTGT	1.01
CATCGGCAAT	1.77
CATCGGGATG	0.982
CATCGTTGTT	0.97
CATCTAATCG	1.02
CATCTACAGG	1.03
CATCTCAGGC	1.16
CATCTCTACG	1.02
CATCTCTCGT	1.05
CATCTGACTT	1.05
CATCTGGTTG	1.09
CATCTGTGTT	1
CATCTTACCG	1.01
CATCTTCGGA	1
CATCTTTCCG	1.01
CATGAAATGG	1.01
CATGACAAAT	0.984
CATGACGTGG	0.962

Sequence	switch fluorescence ratio
CATGATAAGG	0.971
CATGATG	0.978
CATGATGAGG	0.963
CATGCAAAGG	0.99
CATGCCCGTC	0.977
CATGCCGT	0.919
CATGCGCTAA	2.94
CATGGAACC	1.01
CATGGGATTG	0.966
CATGGGCCCG	1.07
CATGGTGATC	1.01
CATGGTGGGC	0.902
CATGGTTATC	0.998
CATGTACACT	1.04
CATGTACGG	1.08
CATGTACTGA	1
CATGTCGGTA	0.987
CATGTCTTGG	1.06
CATGTGGAGC	1.02
CATGTGTGA	0.964
CATGTGTGAT	0.971
CATGTGTTGG	0.987
CATGTTATCG	1.01
CATTAATCCT	1.08
CATTACCCCT	1.15
CATTACCGTC	1.06

Sequence	switch fluorescence ratio
CATTACGGGC	1.06
CATTAGAAAT	0.98
CATTAGCAGC	1.16
CATTAGGCTT	0.987
CATTATAAA	0.938
CATTATAAAA	1.03
CATTATATGC	0.946
CATTATCTGA	1.02
CATTATGCGC	0.995
CATTCACCT	1.18
CATTCCGTTA	1.57
CATTCGAGGG	0.973
CATTCGAGTT	1.01
CATTCGGTAT	1.1
CATTCTTGTT	1.03
CATTGACGT	1.07
CATTGACTAT	1.04
CATTGAGGAG	0.949
CATTGCAACG	1.01
CATTGCGCTG	1.07
CATTGGCTGT	0.983
CATTGGGGTG	1.02
CATTGGTG	0.972
CATTGTATAG	0.992
CATTGTATCC	1.07
CATTGTTGTG	1.01

Sequence	switch fluorescence ratio
CATTTAGAAT	1.01
CATTTCATAA	1
CATTTCATCT	0.999
CATTTCCCGT	1.02
CATTTCGTAG	1.01
CATTTCTCCT	1.04
CATTTGACGT	1.01
CATTTGTGG	0.991
CATTTTTCCC	0.977
CATTTTTCCG	0.974
CCAAAAGC	1.12
CCAAACGTTG	0.983
CCAAACTAGA	0.918
CCAAACTGCA	1.15
CCAAAGACAT	1.04
CCAAAGCCTG	0.998
CCAAATACAT	1.08
CCAAATCAGT	1.03
CCAAATGA	0.993
CCAACAGTCG	0.979
CCAACCAACT	1.12
CCAAGGAGAG	1.01
CCAAGTCGGA	1.04
CCAAGTGTCT	0.984
CCAATCCGGA	1.06
CCAATCTCGC	1.25

Sequence	switch fluorescence ratio
CCAATGTACC	1.19
CCAATTCGG	0.945
CCAATTCGGG	1.03
CCAATTCTTA	1.01
CCAATTCTTT	0.963
CCAATTGAGA	0.979
CCACAACGG	1.04
CCACAAGTCG	1.05
CCACACGAT	1.03
CCACATAGGT	1.02
CCACATGAAA	1.05
CCACATTCTT	1.02
CCACCTTTG	1.03
CCACGAATCA	1
CCACGGACTT	1.42
CCACGGAG	1.02
CCACGGCATT	1.99
CCACGGGAAT	1.05
CCACGTGTGT	1.05
CCACTAAATC	2.18
CCACTCAACC	1.19
CCACTTATTG	1.01
CCACTTCTAG	0.988
CCAGAAGAGC	0.979
CCAGACCGGC	1.06
CCAGACCGGG	0.973

Sequence	switch fluorescence ratio
CCAGACCTTG	0.991
CCAGACTTAA	1.04
CCAGAGCTGT	2.91
CCAGCAGGGC	1.57
CCAGCATCGA	1.13
CCAGCGAAGT	1.08
CCAGCGGTTC	1.47
CCAGGATGAA	1.07
CCAGGCATGG	1.02
CCAGGCATTC	2.49
CCAGGCTCTA	0.999
CCAGGCTGGA	1.02
CCAGGGACAA	1.1
CCAGGGAGAC	1.2
CCAGGTACTC	1.33
CCAGGTGTAG	2.68
CCAGGTTATA	0.989
CCAGGTTTC	1.03
CCAGTAATTA	1.01
CCAGTCGCCC	1.03
CCAGTCTGAG	1.05
CCAGTGCGCG	0.96
CCAGTTAATG	0.984
CCAGTTAGAC	1.33
CCAGTTCTGG	1.05
CCAGTTGGCC	0.992

Sequence	switch fluorescence ratio
CCATAAAGG	1.16
CCATAGACAT	1.14
CCATAGTTGG	1.01
CCATATGAGC	1.01
CCATATGTGA	1.01
CCATCAAGCA	1.45
CCATCACTCA	1.01
CCATCCGGTT	1.24
CCATCGAATT	1.07
CCATCGCCCA	1.22
CCATCGGTTG	0.982
CCATCTGTGA	1.07
CCATGCTAAT	1.05
CCATGGAACG	0.992
CCATGGACTT	1.03
CCATGGTACT	1.08
CCATGTCTGA	0.989
CCATGTGGGA	0.964
CCATTACTCG	1.15
